Values joined by “and” are separate entries in the source; they are usually repeats but may differ in a detail not shown here. Equal entries are not always repeated. About 6,900 (2%) of roughly 340,000 compounds were called active. No stated cut-off is given here; in the data, active means inhibition above about 30%; inactive means below that, where a call was filed. Only a part is listed here, and it is no random draw. Entries without a call were filed so in the source.

The target of the experiment is D(2) dopamine receptor (Homo sapiens) (UniProt P14416). The experiment can be described thus: HTS Assay for Allosteric Antagonists of the Human D2 Dopamine Receptor: Primary Screen for Antagonists. Further: 0% is about no effect. As to conditions: HEK293 TREx D2 cells, calcium flux, dopamine EC80; at 10 µM; stronger effect = higher value. Put shortly: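 Read-out: kinetic calcium fluorescence (1 cycle/s) in inducible HEK293 T-REx D2 cells after an EC80 dopamine addition that followed 180 s compound preincubation. Loss of the dopamine response indicates antagonism.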
Chain of UniProt P14416 (P14416 whole entry, looked up): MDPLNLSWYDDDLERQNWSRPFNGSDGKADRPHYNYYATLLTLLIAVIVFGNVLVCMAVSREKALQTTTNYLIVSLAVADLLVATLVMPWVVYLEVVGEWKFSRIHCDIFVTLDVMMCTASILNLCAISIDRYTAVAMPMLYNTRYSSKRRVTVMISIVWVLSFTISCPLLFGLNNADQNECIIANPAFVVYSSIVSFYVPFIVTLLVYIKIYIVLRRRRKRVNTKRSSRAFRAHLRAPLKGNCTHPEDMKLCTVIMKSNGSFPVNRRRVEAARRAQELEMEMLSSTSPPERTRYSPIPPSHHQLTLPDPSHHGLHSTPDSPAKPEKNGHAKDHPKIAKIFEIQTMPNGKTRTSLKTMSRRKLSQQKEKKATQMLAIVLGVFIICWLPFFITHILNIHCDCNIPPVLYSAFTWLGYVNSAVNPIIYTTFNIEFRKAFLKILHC
By inhibition is commonly meant the change of the read-out against control, counted positive when it falls. Regarding `COC(=O)c1scc(-c2ccc(C)cc2)c1S(=O)(=O)Nc1cc(C)ccc1OC`, the inhibition worked out at 2.14%.
Under `Cc1ccc(NC(=O)c2cnc3sc(N4CCOCC4)nn3c2=O)cc1N(C)C` stands 9.63%; under `COc1ccc(Nc2nc(C)nc(N)c2S(=O)(=O)c2ccccc2)cc1`, 8.89%.
Under `COc1ccccc1C(=O)Nc1sc(Nc2ccccc2)nc1C(N)=O` stands 12%; under `O=C(c1ccc2c(c1)N(Cc1ccccc1)C(=O)c1ccccc1S2(=O)=O)N1CCN(Cc2ccccc2)CC1`, -20.8%; under `CC(C)CCn1c(/C=C/c2ccccc2)nc2ccccc21`, 1.2%.
Under `Cc1ccc(-c2cn3ccc(C)cc3n2)cc1` stands 7.37%; under `Cc1cc(C)cc(NC(=O)CSc2nc3nccnc3c(=O)n2CCc2c[nH]c3ccccc23)c1`, 14.8%.
With `O=C(Nc1ccccc1Cl)N1CCSc2ccccc21`, the inhibition was determined as 6.26%.
With `CCOC(=O)Cn1c(=O)n(C2CCCCC2)c2nc(-c3c(F)cccc3Cl)nc(C(N)=O)c21` the figure was 1.72%.
With `CCOC(=O)Cc1ccc(NC(=O)N(Cc2ccc(CC)cc2)Cc2cn[nH]c2-c2ccc(OC)cc2)cc1` the figure was -15%.
Under `COc1cccc(C(=O)Nc2nc(-c3ccc(Br)cc3)ns2)c1` stands -4.63%; under `Cc1ccc(S(=O)(=O)N2CCN(Cc3nc4ccc(C)cc4o3)CC2)c(C)c1`, -12%; under `Cc1ccccc1OCCn1c(CCNC(=O)C2CCCCC2)nc2ccccc21`, 12.7%.
On to `Cc1nc2ccc(S(=O)(=O)NCC(=O)Nc3ccc(F)cc3F)cc2s1`, for which the inhibition was 17.7%.
Under `CC(C)(C)C(=O)Nc1ccccc1C(=O)OCc1cc(=O)n2ccsc2n1` stands 5.09%.
Consider `CCc1ccc(OCCn2c(C3CC(=O)N(Cc4ccc(F)cc4)C3)nc3ccccc32)cc1` (stereo not drawn), for which the inhibition was -3.53%.
As for `CCc1ccccc1-n1nnc(-c2nsc(NC(=O)c3ccc(C)c(C)c3)n2)c1C`, the inhibition was -2.22%.
Under `CCOC(=O)c1c(C)[nH]c(C)c1S(=O)(=O)N(C)CC(=O)Nc1ccc(C)cc1Br` stands 0.753%; under `COCCCNC(=O)CSC1=Nc2ccccc2C2=NC(CCC(=O)NCc3ccc(OC)cc3)C(=O)N12` (stereo not drawn), 8.67%; under `CCCCn1c(=O)nc2n(-c3ccc(Br)cc3)c3ccccc3cc-2c1=O`, 9%.
With `Oc1ccc[n+](/C=C\c2ccccc2)c1` the figure was active: 37.9%.
With `CC1CCCN(CCCNC(=O)Cn2ncc3c([nH]c4ccccc43)c2=O)C1` (stereo not drawn) the figure was -9.38%; with `Nc1nn(-c2ccccc2)nc1C(=O)OCc1ccccc1`, 0.0898%.
As to `Cc1ccc(/C=C(\C#N)C(=O)Nc2cccc(Br)c2)o1`, the inhibition was -2.54%.
With `Cc1ccc(Cl)cc1N1CCN(C(=O)c2cc3c(=O)oc4ccccc4c3s2)CC1` the figure was 1.52%.
On to `CCN1CCN(C(c2ccccc2Cl)c2c(O)cc(C)n(CCOC)c2=O)CC1` (stereo not drawn), for which the inhibition was 16.2%.
Consider `Cc1oc(-c2ccc(Cl)cc2)nc1CN1CCCC(C(=O)NCc2ccccc2)C1` (stereo not drawn), for which the inhibition came out at 3.49%.
With `Cc1ccc(-n2c(COCC(=O)O)nc3cccnc32)cc1` the figure was 5.79%; with `Cc1ccc(S(=O)(=O)NCC2CCC(C(=O)NCCCOC(C)C)CC2)cc1` (stereo not drawn), -22%; with `CCCCNc1nc2ccccc2c2nc(-c3ccccc3)nn12`, 12.7%.
Under `CCCCN(CC)CCNC(=O)c1cc2c(=O)n(CC)c3ccccc3c2s1` stands -10.4% and active: 35.7%.
With `CCCCNCCOc1ccccc1-c1ccccc1` the figure was active: 69.5%; with `COc1ccc(C)cc1NC(=O)NC1CCN(Cc2ccccc2)CC1`, active: 75.1%; with `Cc1ccccc1NC(=O)c1oc2c(c1C)-c1nn(Cc3cccc(Cl)c3)cc1CC2`, 5.95%.
With `Cc1nc(SCCOc2ccccc2F)[nH]c(=O)c1Cc1ccccc1`, the inhibition was found to be 11.1%.
Regarding `CC(C)CNC(=O)NC(=O)COc1ncnc2sccc12`, the inhibition was active: 37.2%.
With `CCn1c(C)c(C(=O)c2ccccc2)c(C#N)c1C(=O)O` the figure was active: 33.4%; with `Fc1ccccc1N1CCN(c2nccn3nc(-c4ccc(Br)cc4)cc23)CC1`, -8.35%.
Under `Cc1ccc(NC(=O)Cn2nc(Cc3ccncc3)c3ccccc3c2=O)c(Cl)c1` stands -10.4%; under `CCc1c(C)nc2nncn2c1NCc1ccc(Cl)cc1`, -13.2%; under `COc1ccccc1CNC(=O)CN1N=C(c2ccccc2)CCC1=O`, 10%.
With `CCOc1ccc(NC(=O)c2oc3ccccc3c2NC(=O)c2ccc(OC)cc2OC)cc1` the figure was 6.93%; with `C=CCc1ccccc1OCCNCCCOC`, active: 69.1%; with `CC(C)(Oc1ccc(Br)cc1)C(=O)Nc1cc(-c2nc3ccccc3[nH]2)ccc1Cl`, -7.32%.
Take `O=C(CN1N=C(c2ccc(Cl)cc2)CCC1=O)NCCc1ccccc1`: the inhibition is 8.43%.
For `CCOC(=O)CC(NC(=O)Cn1nnc(-c2ccccc2F)n1)c1ccccc1Cl` (stereo not drawn), the inhibition was -15.8%.
With `CCc1ccc(C2C(C(=O)Nc3ccccc3C)=C(C)Nc3nc(SCc4cccc(OC)c4)nn32)cc1` (stereo not drawn) the figure was -4.64%; with `CC(=O)c1ccc(NC(=O)CSc2nc(=O)n(Cc3ccncc3)c3c2CCC3)cc1`, -17.7%.
With `O=C(Cn1c(=O)nc(-c2ccccc2)c2ccccc21)NCc1ccccc1Cl` the figure was 14.6%; with `CCS(=O)(=O)c1ncc(N(Cc2ccco2)Cc2ccccc2F)c(C(=O)Nc2cccc(Cl)c2)n1`, 11.7%.
Turning to `CCOC(=O)CC1=C(C#N)C(c2cccnc2)C(C(=O)OCC)=C(N)O1` (stereo not drawn), the inhibition was active: 37.7%.
Under `Cc1ccc(N2CCN(C(=O)c3cn(C)c4ccc(S(=O)(=O)N(C)C)cc4c3=O)CC2C)cc1` (stereo not drawn) stands 19.9%; under `O=c1oc(-c2ccccc2Cl)nc2ccsc12`, active: 30.5%.
With `O=c1cc(-c2ccc(F)cc2)nc(SCc2nc(-c3ccc(Cl)cc3)no2)[nH]1` the figure was 7.61%.
Under `CCOC(=O)c1c(C)[nH]c(C)c1S(=O)(=O)NCC(=O)NCc1cccc(C)c1` stands -10.2%.
Regarding `CCOC(=O)c1ccc(CN(Cc2ccc(Br)cc2)S(=O)(=O)c2cccc(Cl)c2C)cc1`, the inhibition was 5.14%.
With `COc1cc(C(=O)NCC(c2ccc(Cl)cc2)N2CCOCC2)cc(OC)c1OC` (stereo not drawn) the figure was -1.6%; with `COCCCNC(=O)c1ccc(Cn2c(=O)c3ccccc3n(Cc3c(C)cc(C)cc3C)c2=O)cc1`, 3.66%; with `COc1ccc(-c2nc3n(n2)C(c2ccc(OC)c(OC)c2)C(C(=O)Nc2cccnc2)=C(C)N3)cc1` (stereo not drawn), 7.15%.
On to `CCCCN(CC)C(=O)C1CCCN(c2ncnc3onc(C)c23)C1` (stereo not drawn), for which the inhibition was determined as 11.1%.
Under `CCN1CCN(C(c2ccc(SC)cc2)c2c(O)cc(C)n(CCOC)c2=O)CC1` (stereo not drawn) stands -0.715%; under `Cc1ccc(NC(=O)c2nc[nH]c2C(=O)N2CCc3ccccc3C2)cc1`, active: 63.4%; under `Cc1ccccc1C(=O)N(Cc1sccc1C)C1CCS(=O)(=O)C1` (stereo not drawn), 0.302%.
With `COc1cc(NC(=O)CCn2nc(C)c(S(=O)(=O)N3CCCCC3)c2C)cc(OC)c1OC` the figure was -5.11%; with `COc1ccc(CCNC(=O)c2ccc(Cn3c(=O)c4ccccc4n(CC(=O)C(C)(C)C)c3=O)cc2)cc1OC`, 7.25%.
With `COc1ccc(Cl)cc1NC(=O)c1c(NCc2cccnc2)sc2c1CCC(C)C2` (stereo not drawn) the figure was 9.93%; with `CC1CCCCN1CCCNC(=O)CN1C(=O)c2cccnc2Oc2ccccc21` (stereo not drawn), 12.6%; with `COc1ccccc1NC(=O)C1=C(C)Nc2c(C(=O)Nc3cccc(C)c3)cnn2C1c1ccccc1Cl` (stereo not drawn), 23.7%.
With `Cc1ccc(Cl)cc1NC(=O)CCCn1c(=O)c2cccn2c2cccnc21`, the inhibition is -0.541%.
Turning to `COc1cccc(NC(=O)C(Cc2ccccc2)NS(=O)(=O)c2ccc3c(c2)c(=O)n(C)c(=O)n3C)c1` (stereo not drawn), the inhibition was -27.1%.
With `Cc1cccc(CNC(=O)Cn2ccc3cc(S(=O)(=O)N4CCCCCC4)ccc32)c1` the figure was 1.9%; with `CCCc1cc(=O)oc2cc(C)c3c(-c4ccccc4)coc3c12`, -6.9%; with `O=C(CN1C(=O)CSc2ccc(S(=O)(=O)N3CCCC3)cc21)Nc1cccc(Cl)c1`, -28%.
With `CCOc1ccccc1NC(=O)CSc1nccn1-c1cccc(C)c1` the figure was 21.4%; with `COc1ccc2c(Sc3ccc(C)cc3)c(C(=O)NC(C)C)[nH]c2c1`, -24.7%; with `CCOc1ccc(-n2c(=O)c3c(C)c(C)sc3n(CC(=O)NCCc3ccccc3)c2=O)cc1`, 13.2%.
With `Cc1ccc(S(=O)(=O)C(CNC(=O)C(=O)NCCc2ccccc2)c2cccs2)cc1` (stereo not drawn) the figure was 27.6%; with `O=c1oc2ccccc2c(N2CCN(c3ccccc3F)CC2)c1CN1CCCC1`, -2.45%.
`CCOc1ccc(C2CC(=O)c3c([nH]c(C(=O)OCC4CCCCC4)c3C)C2)cc1` (stereo not drawn): the inhibition is 14.2%.
As for `COCCCNC(=O)c1nn(-c2ccc(C)cc2)nc1CO`, the inhibition was found to be 13.3%.
Under `CCN(CC)C(=O)C1CCN(S(=O)(=O)c2c(C)noc2/C=C/c2cccc(OC)c2)CC1` stands 4.85%; under `Cc1c(C(=O)N2CCCCC2)c(S(=O)(=O)NCc2ccc(Cl)cc2)c(C)n1C`, active: 48.3%.
Under `CCC(C)NC(=O)CCCc1nnc2n(CC(C)C)c(=O)c3sccc3n12` (stereo not drawn) stands 5.32%.
With `Cc1cc2c([nH]c3ccccc32)c2c1OC(C)(C)C=C2` the figure was active: 42.6%; with `CCOc1ccc(NC(=O)c2cc(S(=O)(=O)NC3CCCCCC3)ccc2F)cc1`, -11.4%; with `CCc1nnc(NC(=O)COc2ccc(N(C)S(=O)(=O)c3ccc(C)cc3)cc2)s1`, active: 39.9%.
For `COc1ccc2c(c1)CCc1c(C(=O)Nc3c(C)nn(Cc4ccccc4)c3C)noc1-2`, the inhibition was determined as 12.8%.
With `Cc1ccccc1-c1noc(-c2ccc(NCc3ccco3)c([N+](=O)[O-])c2)n1` the figure was 0.0874%; with `CCCNC(=O)CN1C(=O)CSc2ccc(S(=O)(=O)N3CCC(C)CC3)cc21`, 0.956%.
With `CN(C)CC/C=C1\c2cc(F)ccc2CSc2ccccc21` the figure was active: 36.8%.
With `O=C(CNCc1ccco1)Nc1ccccc1-n1cccc1` the figure was active: 38%.
Regarding `Cc1ccc(Nc2c(C(C)C)c(C)c(C#N)c3nc4ccccc4n23)cc1`, the inhibition was -14.1%.
Turning to `CCOc1ccc(CCNC(=O)c2nn(C)c3c2CSc2ccccc2-3)cc1`, the inhibition amounted to 0.0981%.
Under `COc1ccc(C2N(C(=O)C(F)(F)F)C(C)CN2S(=O)(=O)c2ccc(C)cc2)cc1` (stereo not drawn) stands active: 34.8%; under `O=C(O)c1ccc(NC(=O)c2cc(S(=O)(=O)N3CCCCC3)c(Cl)cc2Cl)cc1`, 7.17%; under `CCOc1ccccc1CNC(=O)CCCn1ccc2cc(S(=O)(=O)N3CCCC3)ccc21`, -9.64%.
With `Cc1ccc(Cn2cnc3nc4c(cc3c2=O)CC(C)CC4)cc1` (stereo not drawn) the figure was -18.6%.

The values above are taken from PubChem BioAssay AID485344 (National Center for Advancing Translational Sciences (NCATS), 2010).
